# Results taken from PubChem BioAssay AID1460 (National Center for Advancing Translational Sciences (NCATS), 2008).
# In all, about 270,000 compounds went through this assay and about 5,800 (2.1%) were called active. Inconclusive means that the source gave no clear call. Such entries were picked first, then a sample of the others. The call rests on the fitted dose curve; in most records, active means well fitted inhibition curve with a large enough effect; inconclusive means small, poorly fitted or top-dose-only effect; inactive means flat fitted curve, though single readings scatter. Where the call is inconclusive, the potency comes from a doubtful curve fit.
# Target: Microtubule-associated protein tau (Homo sapiens) (UniProt P10636)
# UniProt P10636, sequence (P10636 whole entry, looked up): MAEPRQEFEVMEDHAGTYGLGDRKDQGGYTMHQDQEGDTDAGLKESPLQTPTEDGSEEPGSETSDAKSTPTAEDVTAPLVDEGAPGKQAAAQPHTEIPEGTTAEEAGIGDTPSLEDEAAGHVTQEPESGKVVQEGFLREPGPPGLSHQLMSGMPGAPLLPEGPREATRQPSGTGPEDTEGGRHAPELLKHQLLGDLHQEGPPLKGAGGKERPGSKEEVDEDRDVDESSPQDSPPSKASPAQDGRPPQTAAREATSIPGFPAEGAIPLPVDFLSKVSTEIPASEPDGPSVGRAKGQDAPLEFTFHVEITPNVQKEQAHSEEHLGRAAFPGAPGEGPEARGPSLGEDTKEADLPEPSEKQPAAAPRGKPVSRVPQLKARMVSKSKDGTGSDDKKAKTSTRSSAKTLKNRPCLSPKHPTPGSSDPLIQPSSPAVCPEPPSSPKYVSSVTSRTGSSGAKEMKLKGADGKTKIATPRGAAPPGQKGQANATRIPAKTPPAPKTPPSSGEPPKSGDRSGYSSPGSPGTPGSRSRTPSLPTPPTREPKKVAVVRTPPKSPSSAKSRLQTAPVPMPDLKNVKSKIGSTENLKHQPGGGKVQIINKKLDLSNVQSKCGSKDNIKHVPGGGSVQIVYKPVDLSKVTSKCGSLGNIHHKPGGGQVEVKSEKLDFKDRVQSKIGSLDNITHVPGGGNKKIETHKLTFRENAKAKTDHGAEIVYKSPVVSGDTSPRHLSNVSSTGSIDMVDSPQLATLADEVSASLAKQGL
# Assay: qHTS for Inhibitors of Tau Fibril Formation, Thioflavin T Binding; further: nearly all actives have a fitted effect of over 55% in size
# Details: recombinant tau K18 P301L (four-repeat tau fragment), heparin-induced fibrillization, ThT fluorescence; series mostly up to 57.4 µM; activity, negative = inhibition: at the top concentration
# In short: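 Heparin-induced fibrillization of the P301L-mutant K18 repeat-domain fragment of human tau was followed by ThT binding in quantitative high-throughput format.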
# On the % scale 0 is the no-effect control and ±100 the full control effect; potency means the concentration at half of the fitted maximal effect; tags describe the fitted curve by direction and shape.
SMILES,Potency,"activity, negative = inhibition"
Cc1cc(Nc2c(C)n(C)n(-c3ccccc3)c2=O)n2c(nc3ccccc32)c1C#N,"inconclusive: 25.1 µM [inhibitor, partial curve]",–
O=C(CCCC1=NS(=O)(=O)c2ccccc2N1)N1CCN(c2ccc(Cl)cc2)CC1,"inconclusive: 5.01 µM [inhibitor, partial curve]",–
Cc1cc(C)n(CCC(=O)N/N=C/c2ccc(Br)c([N+](=O)[O-])c2)n1,"inconclusive: 39.8 µM [inhibitor, single point]",–
CCCn1c(SCC(=O)Nc2nnc(C(C)C)s2)nc2c1c(=O)n(C)c(=O)n2C,–,inactive: -0.679%
CCCCCOc1ccc(NC(=O)Cn2c(-c3cncs3)nc3ccccc32)cc1,"inconclusive: 11.2 µM [inhibitor, partial curve]",–
O=C(NCC1CCCO1)c1sc2ccccc2c1Cl (stereo not given),–,inactive: -1.23%
C=C(C)CN=C1NN=C(c2cc(C)n(-c3ccc(C)cc3)c2C)CS1,"inconclusive: 15.8 µM [inhibitor, partial curve]",–
CCCS/C(N)=N/N=C/c1cc(C)ccc1O,"inconclusive: 0.562 µM [inhibitor, full curve, poor fit]",–
Cc1ccccc1C(=O)Nc1ccc2oc(-c3ccc(Cl)c(Cl)c3)nc2c1,"inconclusive: 0.501 µM [inhibitor, full curve, poor fit]",–
C=CCn1c(-c2oc3nc(-c4ccccc4)cc(-c4ccccc4)c3c2N)n[nH]c1=S,"inconclusive: 28.2 µM [inhibitor, single point]",–
Cc1ccccc1Nc1nnc(-c2ccc(C)c(S(=O)(=O)N3CCCCC3)c2)c2ccccc12,"inconclusive: 5.01 µM [inhibitor, single point]",–
CCc1c(C)nc2ncnn2c1Nc1ccc(C(C)=O)cc1,"inconclusive: 12.6 µM [inhibitor, partial curve]",–
O=c1c2ccccc2cnn1CCOc1ccccc1,–,inactive: -7.06%
C/C(=N\NC(=O)C(=O)Nc1cccc(C(F)(F)F)c1)c1ccc(Cl)s1,–,inactive: -17.3%
Clc1ccc(CN2C3=NCCN3c3ccccc32)cc1Cl,–,inactive: 6.04%
COc1ccc(-n2c(Cc3cccn3C)nnc2SCC(=O)Nc2ccc(C)c(Cl)c2)cc1,–,inactive: -17.4%
CCOc1ccc(OCC)c(NC(=O)CN(C)S(=O)(=O)c2ccc3nc(C)sc3c2)c1,"inconclusive: 8.91 µM [inhibitor, partial curve, poor fit]",–
Cc1ccc(C)c(NCC(=O)NNC(=S)Nc2ccccc2)c1,–,inactive: -9.01%
CCSc1nc(-c2ccccc2)nc(C(Cl)Cl)n1,"inconclusive: 31.6 µM [inhibitor, single point]",–
Cc1cccc(/C=C(\C(=O)C(=O)O)c2ccc3ccccc3n2)c1,"inconclusive: 25.1 µM [inhibitor, partial curve]",–
O=[N+]([O-])c1ccc2nc(-c3ccccc3)cc(-c3ccccc3)c2c1,–,inactive: -0.597%
N#CC(=C1SC=CS1)c1nc(-c2ccccc2)cs1,"inconclusive: 8.91 µM [inhibitor, partial curve]",–
CCN1C(=O)c2ccc(C(=O)Nc3ncc(C)s3)cc2C1=O,–,inactive: -14.4%
CC(NC(=O)c1cc(-c2ccc(Cl)cc2)on1)c1ccccc1 (stereo not given),–,inactive: 0.171%

SMILES,Potency,"activity, negative = inhibition"
O=C(NCC(c1cccnc1)N1CCc2ccccc21)C(=O)Nc1ccccc1F (stereo not given),–,inactive: -9.18%
COc1ccc(Nc2ncnc3c2nc2n3CCCC2)cc1Cl,"inconclusive: 28.2 µM [inhibitor, single point]",–
Cc1ccc(N=c2sc(C)c(C)n2C)cc1,–,inactive: -3.73%
CCOC(=O)c1ccc(/C=C2/C=C(c3ccccc3)N(c3ccc(Cl)c(C(=O)O)c3)C2=O)cc1,active: 15.8 µM,–
O=C(c1ccc(Oc2cc(Cl)cc(Cl)c2)o1)N1CCCCC1,"inconclusive: 39.8 µM [inhibitor, single point]",–
CCOC(=O)c1ccc(NC(=O)N2CCN(c3ccccn3)CC2)cc1,"inconclusive: 3.98 µM [inhibitor, partial curve]",–
O=S(=O)(Nc1ccc(N2CCCCC2)cc1)c1ccc(F)cc1,"inconclusive: 8.91 µM [inhibitor, partial curve]",–
COc1ccc(Cl)cc1NS(=O)(=O)c1c(C)[nH]c(=O)[nH]c1=O,active: 28.2 µM,–
Cc1ccc(O)c(NC(=O)CCSc2nc(-c3ccco3)cc(C(F)(F)F)n2)c1,"inconclusive: 14.1 µM [inhibitor, partial curve]",–
C/C(=N\Nc1ccc(F)cc1F)c1ccc(F)cc1,"inconclusive: 31.6 µM [inhibitor, single point]",–
C/C=C\C1=C(CO)[C@H](O)[C@H]2O[C@H]2[C@H]1O,–,inactive: -6.41% [at 11.5 µM]
COc1ccc(OC)c(C2CC(=O)c3c([nH]c(C(=O)OCC4CCCO4)c3C)C2)c1 (stereo not given),"inconclusive: 31.6 µM [inhibitor, partial curve]",–
COc1ccccc1CNC(=O)/C=C/c1ccc(Br)o1,"inconclusive: 17.8 µM [inhibitor, partial curve]",–
Cc1ccc(C)c(-n2nnnc2SCC(=O)NNC(=O)c2ccco2)c1,–,inactive: -0.808%
Cc1ccc(/C=N/c2sc3c(c2C#N)CCC3)o1,"inconclusive: 1.26 µM [inhibitor, full curve, poor fit]",–
O=C(/C=C/c1ccccc1)N1CCN(Cc2cc(=O)n3nc(-c4ccccc4Cl)sc3n2)CC1,"inconclusive: 15.8 µM [inhibitor, partial curve]",–
COc1cc(OC)c(NC(=O)c2cn(C)c(=O)c3cc(OC)c(OC)cc23)cc1Cl,–,inactive: -9.95%
Cc1ccc(Cn2c(C)c3cnn(CC(=O)N4CCN(c5ccc(F)cc5)CC4)c(=O)c3c2C)cc1,"inconclusive: 39.8 µM [inhibitor, single point]",–
Cc1ccc(/C=C2\S/C(=N/S(=O)(=O)c3cccs3)NC2=O)cc1,–,inactive: -19.7%
Cc1ccc(-n2[nH]c(C)c(/C=C3/C=Nc4ccccc43)c2=O)cc1C,"inconclusive: 1.12 µM [inhibitor, full curve]",–
Cc1oc2ncn(CC(C)C)c(=O)c2c1C(=O)N(Cc1ccccc1)C(C)C,–,inactive: -2.57%
Cc1nc2nc(C(F)(F)F)[nH]n2c(=O)c1Cc1ccccc1,–,inactive: 4.46%
COc1ccc(-c2[nH]nc3c2C(c2ccoc2)C(C#N)=C(N)O3)cc1 (stereo not given),"inconclusive: 12.6 µM [inhibitor, partial curve]",–
Cc1sc2ncnc(OCC(=O)NCC3CCCO3)c2c1C (stereo not given),"inconclusive: 0.178 µM [inhibitor, full curve, poor fit]",–

SMILES,Potency,"activity, negative = inhibition"
COC(=O)c1[nH]c2ccc(Cl)cc2c1NC(=O)CN1CCc2cc(OC)c(OC)cc2C1,"inconclusive: 39.8 µM [inhibitor, single point]",–
COc1ccc(N2CCN(C(=O)CCc3nc(-c4ccc(C)cc4)no3)CC2)cc1,"inconclusive: 12.6 µM [inhibitor, partial curve]",–
CC1Cn2cc(C(=O)Nc3ccccc3C(F)(F)F)c(=O)c3c(Cl)ccc(c32)O1 (stereo not given),–,inactive: 2.1%
COc1cc(OC)cc(C(=O)N[C@H](C(=O)NCc2cccs2)C(C)C)c1,–,inactive: -6.24%
Cc1ccccc1-c1noc(-c2cc(C(C)C)[nH]n2)n1,"inconclusive: 25.1 µM [inhibitor, single point]",–
Cc1ccsc1/C=C1\Oc2cc(OCC(=O)c3ccccc3)ccc2C1=O,"inconclusive: 3.16 µM [inhibitor, full curve]",–
CC(C)N1CCC2(CC1)N=C(c1ccc3c(c1)OCO3)CC(c1cc(Cl)ccc1O)N2 (stereo not given),"inconclusive: 25.1 µM [inhibitor, partial curve]",–
Cc1ccc(CNC(=O)CCC2CCCN(C(=O)c3ccc4c(c3)OCO4)C2)o1 (stereo not given),"inconclusive: 39.8 µM [inhibitor, single point]",–
CCOc1ccc(/C=N/Nc2cc(C)nc(N3CCOCC3)n2)cc1,"inconclusive: 3.16 µM [inhibitor, full curve]",–
Cc1csc(N/N=C/c2ccc(O)c([N+](=O)[O-])c2)n1,active: 5.01 µM,–
COC(=O)c1ccc(OC)c(CSc2nnc(COc3cccc(C)c3)o2)c1,"inconclusive: 11.2 µM [inhibitor, partial curve, poor fit]",–
CCc1ccc(/C=C2\Oc3cc(OS(C)(=O)=O)ccc3C2=O)cc1,"inconclusive: 1.78 µM [inhibitor, partial curve]",–
COC(=O)c1ccc(NC(=O)CSc2nc3c(c(=O)n(C)c(=O)n3C)n2Cc2ccccc2)cc1,"inconclusive: 39.8 µM [inhibitor, single point]",–
O=C(O)C1CSC(c2ccccc2Cl)N1C(=O)c1ccc(Cl)cc1 (stereo not given),–,inactive: -8.25%
Cc1ccc(NC(=O)Cn2cnc3c(oc4ccccc43)c2=O)cc1,"inconclusive: 14.1 µM [inhibitor, partial curve]",–
Cc1ccc(C(=O)c2oc3ccccc3c2NC(=O)COc2ccc(C(C)(C)C)cc2)cc1,–,inactive: -15.3%
Oc1ccc(NCc2ccccc2OCc2ccccc2Cl)cc1,active: 28.2 µM,–
Cc1ccc(/C=C(/C#N)C(=O)NC(C)c2ccccc2)o1 (stereo not given),–,inactive: -2.21%
CN(C)c1ccc(NC(=O)CSC2=Nc3ccccc3C3=NC(CC(=O)NCc4ccc5c(c4)OCO5)C(=O)N23)cc1 (stereo not given),"inconclusive: 31.6 µM [inhibitor, single point]",–
CCOc1ccc(OCc2ccc(C(=O)N3CCOCC3)cc2)cc1,"inconclusive: 17.8 µM [inhibitor, partial curve, poor fit]",–
Cc1cccc(-n2ncc(C(=O)Nc3ccc4c(c3)OCO4)c2C2CCN(C(=O)OC(C)(C)C)CC2)c1,"inconclusive: 15.8 µM [inhibitor, partial curve]",–
O=Cc1ccccc1OCCOc1ccc([N+](=O)[O-])cc1,"inconclusive: 22.4 µM [inhibitor, partial curve, poor fit]",–
